The values below come from patent publication US20160084841A1, “Method for Predicting Clinical Effect of Immunotherapy” (INTERNATIONAL INSTITUTE OF CANCER IMMUNOLOGY, INC., priority 2013, published 2016).

This test relates to anti-WT1332 peptide IgG antibody. Briefly: ELISA using variant WT1 antigen peptide as immobilized antigen to assay anti-WT1332 peptide IgG antibody. Format: binding, human. As to conditions: serum diluted 100-fold; titer increased in WT1332-immunized patient, not in unimmunized patient; FIG. 18. On the procedure:
A vector expressing WT1-frg3 (SEQ ID NO: 57) as a GST-tagged protein was constructed using a pGEX-5X-3 vector (GE Healthcare Japan Corp.). The prepared vector was transferred to competent cells DH5α by heat shock. The vector-transferred E. coli was cultured. At the point in time when the OD600 value became 0.4 to 0.6, isopropyl-β-D-thiogalactoside (IPTG) was added at a final concentration of 1 mM to the medium to induce protein expression. The cells were further cultured for 3 hours. The bacterial cells were collected by centrifugation and then lysed in an SDS sample buffer (0.125 M Tris-HCl, 0.1 M DTT, 4% SDS, 10% sucrose, and bromophenol blue, pH 6.8). […]
The GST-WT1 frag1 protein solution (10 ng/μL) was added at 100 μL/well to a 96-well plate for ELISA. […] The reaction was terminated with 1 N HCl, and the absorbance at 450 nm was then measured using a microplate reader (CORONA […] MTP-32).
To a 96-well reaction plate supplied with Peptide Coating Kit (Takara Bio Inc.) having amino groups (—NH2) attached to the bottom surface of the wells, a solution (4 μg/mL) of the WT1 peptide dissolved in a reaction buffer supplied with Peptide Coating Kit was added at 50 μL/well. […] The reaction was terminated with 1 N HCl, and the absorbance at 450 nm was then measured using a microplate reader (CORONA […] MTP-310Lab).
(In general: An ELISA detects its analyte on a solid surface through an enzyme-linked reagent.)

B1: WT1-frg3: GST-tagged long-chain peptide (132 aa, SEQ ID NO: 57) containing the whole length of the administered WT1332 peptide (protein)
chain: SEKRPFMCAYPGCNKRYFKLSHLQMHSRKHTGEKPYQCDFKDCERRFSRSDQLKRHQRRHTGVKPFQCKTCQRKFSRSDHLKTHTRTHTGKTSEKPFSCRWPSCQKKFARSDELVRHHNMHQRNMTKLQLAL
modifications: GST tag
For the molecule B1, the “ability as ELISA antigen to measure anti-WT1332 IgG antibody level in patient's serum” value was “could measure an anti-WT1332 IgG antibody level in patient's serum”.
